Reference: the CheMixHub ionic liquid set
The source gives many values for each of these; only a part stands here.

Assay: xn = mol fraction of the nth substance listed
Conditions: 101 kPa

CCCCCCCCCCCCOCC(O)C[N+](C)(C)C.[Cl-] (centres undefined) + O
electrical conductivity [S/m]
Conditions | 318.15 K | 323.15 K
x1 = 9.77e-06 | – | 15.7
x1 = 1.929e-05 | – | 31.1
x1 = 2.918e-05 | – | 46.2
x1 = 3.872e-05 | – | 61
x1 = 4.847e-05 | – | 75.3
x1 = 5.831e-05 | – | 89.2
x1 = 6.791e-05 | – | 104
x1 = 7.769e-05 | – | 119
x1 = 8.751e-05 | – | 132
x1 = 9.708e-05 | – | 146
x1 = 0.0001069 | 150 | 160
x1 = 0.0001166 | 162 | 171
x1 = 0.0001263 | 173 | 182
x1 = 0.0001362 | 183 | 196
x1 = 0.000146 | 193 | –
